Laboratory results: the RNAGym collection of RNA variant scans (doi:10.7554/elife.90254)
The source gives no read counts; variants with many changes may rest on few reads.

B1: LINE1-full (parent)
chain: UACGUAGGUGGUUUUCCCCUGAUAGUGCUAAGGGGGCCUGGAAGUUUGGACUGGGCAGAGCUCAACACAGCGUGGCAAAGUGGCUGUGGCUAGACUGCCUCUCUGGAUUCCUCGUCACUCAGCAGGGCAUCUCUGAGAGAAAUGCC

Variants of: B1
Assay: self-cleavage, relative activity (ratio to wild type); higher = more cleavage; in vitro, sequencing; the parent is a self-cleaving ribozyme

| Variant | self-cleavage |
| --- | --- |
| C3U U5C G58A | 0.15 |
| U112C U119C C145G | 1.75 |
| U91C A140U A141U | 0.87 |
| U1C U23C G127A | 2.24 |
| A67G A78G C145G | 0.36 |
| U73C U85C C99U | 0.26 |
| U46C A107C A121U | 2.21 |
| U5C U14C A43G A79G A142G | 0 |
| U14C A77U A129U | 0.84 |
| U23C G41U U81C U115C U132C | 1.12 |
| A2G U13C U119A | 1.56 |
| C28U U62C C68U C84U A124G | 0 |
| U9A U96C U108C C145U | 0.18 |
| U20A G33U A64U U112A U132A | 0.41 |
| U47C U62C A64U U73A | 0.03 |
| A64G U85A U104A A138G | 0.08 |
| U9A C38U A69G U87A | 0.12 |
| U12G G70A U108C | 0.53 |
| U1C U115C A121U | 0.84 |
| U12G U26A U112C A138U | 0.91 |
| U39C C56U G106U | 0.06 |
| U46A A65G A121U A140G | 0.04 |
| U20C U47A U73A | 1.4 |
| U12C U45C G60A A136U | 0.05 |

| Variant | self-cleavage |
| --- | --- |
| G36U G53A U109C | 1.21 |
| A24U A78G G144A | 1.15 |
| U9C U85A A94U | 0.19 |
| U39G G72A U104C | 0.84 |
| U9A U104C G135A | 1.67 |
| A22G A24G A50C A57U U115A | 0.27 |
| U9A U15C C98U C110A | 0.53 |
| A22G C38A A50U A92G U115A A124G | 0.27 |
| A65G A77G A78G A124U | 0 |
| G80A U102C G106U C123U A141G | 0.68 |
| U15C U46C U47C C113U | 1.16 |
| U13G G33U G105A A129G A138G | 1.11 |
| G8A U14C U134A | 0.97 |
| U9A G36C A77U U100C A121U | 1.59 |
| U81G G86U U91C C103U | 0.03 |
| U39A U81A U115C C116U A138U | 2.33 |
| U1C U15A A24U U134C A136U | 0.45 |
| U62C A77G A136U | 0.14 |
| U47A A50G U115A U134A A141G | 0.29 |
| U14A A42U U100C U134A U143C | 1.52 |
| U29A A140G A142G | 1.22 |
| U9C U14C U52A U130A | 0.15 |
| U47A A69U U104C | 0.09 |
| U1C G53A G139U | 1.3 |

| Variant | self-cleavage |
| --- | --- |
| G8U U62C U85C A94G | 0 |
| U13C A57U U85C U96A | 0.16 |
| C63U U73C C98U | 0.17 |
| U12C A65G G144A | 0.15 |
| A24U C110U U132C A140G | 1.55 |
| A2C A22U A77G | 2.22 |
| G4A G7U G139A | 1.07 |
| A22G C71G A79G U130C A140G | 0.51 |
| U1C A77U A78G A94G | 0 |
| U47A A121G A136G | 2.02 |
| U15C G33U A77G U102C | 2.19 |
| U45C A79G U109A C116A U134A | 0.43 |
| U12C A50G A59G G83A A94U | 0.21 |
| G21U A43U U52C A78G U81C | 2.3 |
| U12A A22G A57G | 0.97 |
| U12C A57G U87C A124U | 0 |
| U13C U39C A78U U119A | 2.32 |
| U62A G82A C128U C131U | 0.01 |
| U13C U52A U62C U96C | 0.09 |
| U15C A92G A141G | 0.03 |
| U45C U46C A57G A78G G114A U130C | 0 |
| U9A U96C U119C | 0 |
| U39A A78G G135A | 1.87 |
| U23C A124G U134C | 2.39 |

| Variant | self-cleavage |
| --- | --- |
| A42G U62A U85C U102C U108C G122U A136U | 0 |
| U14A A22G A78G | 0.88 |
| U14C A78U A129G | 1.72 |
| U39A A50G U119C | 1 |
| A50U A138G A141G | 0.85 |
| U73A U108C A117G U134C | 2.76 |
| U29C A57G A138G | 1.75 |
| U45A U47C A50U U85C U91A | 0 |
| U14C U26C A65G A78G | 0.77 |
| U85C A94G U115A | 0.14 |
| A43U U108C A140U | 1.03 |
| U12C G34A U108A | 0.79 |
| C19U A69G U100C A141G | 1.15 |
| U15C A31G A57G A67G U132C | 0.84 |
| U20C U73C A141G A142G | 1.53 |
| U9G U29A A42G U112A U130C U143C | 2.04 |
| A22U A24C A78G | 1.71 |
| A24C A78U G88C U104A | 0.11 |
| U1A A22G C133U | 1.37 |
| A67U U73C A129G | 0.48 |
| U5C A43G C61U U62C G89U A138G | 0.09 |
| U9C U13C A42G A67G G74U | 0.61 |
| U9C U12C C37G | 0.69 |
| U12G G33A U39A U115C A129G | 0.4 |

| Variant | self-cleavage |
| --- | --- |
| C16U C76A G88U U104C U134A A141G | 0.04 |
| A2U U13C A78G | 1.69 |
| A77U A107U A140G | 1.78 |
| A30G U112C A140G | 0.98 |
| G11A U46A A94G U96C | 0 |
| U52A U62C A77G A121G | 0 |
| G8A A43G U47C A124U A136U | 0.95 |
| U46C U109A U130C | 0.54 |
| A57U U104C G125U | 0.1 |
| U39A C51A A59C A69G | 0.6 |
| U100C G106A U134C | 2.25 |
| A30G G32C U45C | 0.92 |
| U73A C116A A117G A121U | 0.37 |
| U96C U119C A142G | 1.84 |
| U13C A67G U143C | 0.42 |
| A43G C51A A69G U73A A129U | 0.31 |
| U9A U14C A67U U130A A142G | 0.25 |
| U85C U109C A136G | 0.08 |
| C84A G114A A140G | 0.06 |
| U13A C99U A117G | 0.53 |
| U39C A57U U81A G122A | 0.05 |
| A22G U109C A142G | 0 |
| U13A A67G U115C A138G | 1.48 |
| A77C U85C A117G | 0 |

| Variant | self-cleavage |
| --- | --- |
| G40A A92G U100C | 0.09 |
| U46A G75U G106A U119A G125A A136G U143C | 0.76 |
| U15A C84U U91C A142G | 0.19 |
| A77U A141G A142G | 1.02 |
| C19U U62C A129C | 0 |
| C19U U26A U119C C131U | 1.13 |
| G49A A78G U85C | 0.03 |
| A22G U39A A138G | 1.9 |
| A50G C56U A142G | 0.1 |
| G7A A59G C76U | 0.09 |
| G25C U85C A140G | 0.19 |
| A42G U73C A79G A141C | 1.23 |
| C16A A92G A140G | 0.05 |
| G33U C38U U47A A121U U132A | 1.42 |
| A117G A124U A140G | 0 |
| A42G A92G U143A | 0.18 |
| U52A U102C U119C A129G | 0 |
| A30G U47C U62C A94G G127A | 0 |
| A24G U46C U81A A140G | 2.08 |
| U26A U81C U112A U119A | 0.48 |
| A22G U109G U112A U134A | 0 |
| A42U C61U U87C | 0.04 |
| C16A G88A A138G | 0.06 |
| U39A A43G A67U U73C | 0 |

| Variant | self-cleavage |
| --- | --- |
| U45C C63G A92G | 0.11 |
| U26A A77G U81G A142G | 1.31 |
| U23A U46C G58A G126A | 0.12 |
| U47C A57U G114A | 0.19 |
| U5A U12C G114A | 1.61 |
| U45C U85A G89A A141G | 0.06 |
| A57G U62G A65G U115A | 0 |
| U23C A31U U87A | 0.11 |
| A64G U73A C131U | 0.25 |
| A124G A142G U143C | 1.11 |
| U9A U15A U100C A138G | 0.89 |
| G21A A94G U115C A129G | 0 |
| G53A C66U A79G | 0.05 |
| A43U A69G U102C | 0.96 |
| C3U A42U U115C | 0.6 |
| U13C U20A U109A A140G A141G | 0.4 |
| A42U C90U U104A | 0.04 |
| U23A A31U G41U | 1.65 |
| U15A G35A U73A | 1.18 |
| C19U U29C A59G A138U | 0 |
| U15C C84U A92U | 0.2 |
| U23C A129G A142G | 1.6 |
| A77G A79G U119A | 0.56 |
